According to the supplement of paper PMC3334620:
Whole data set: some 33,000 sequences, median “E-score (-0.5 to 0.5)” near -0.04, cut for the highest 2% near 0.36. The list shows a part of the results.

What follows are sequences tested against T1, Hmlalpha2 (UniProt P0CY09) (assay: PBM E-score (8-mer binding enrichment) (E-score (-0.5 to 0.5)); higher = stronger / more preferred TF binding; most listed sequences are background and not binding sites). Conditions: protein concentration: 200 nM; construct: GST-full length.
T1 sequence: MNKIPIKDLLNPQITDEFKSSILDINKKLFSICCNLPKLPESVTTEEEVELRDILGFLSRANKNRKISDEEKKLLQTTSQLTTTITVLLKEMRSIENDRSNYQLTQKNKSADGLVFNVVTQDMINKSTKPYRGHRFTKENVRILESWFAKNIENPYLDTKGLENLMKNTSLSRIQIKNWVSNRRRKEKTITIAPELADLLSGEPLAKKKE
Method: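 Universal 'all 10-mer' protein binding microarrays (Agilent AMADID 015681) probed with GST-tagged S. cerevisiae TFs (full-length or DBD) made by in vitro transcription/translation (PURExpress), about 100-200 nM. Bound TF was detected with fluorescent anti-GST. Each ungapped 8-mer (which stands for itself and its reverse complement) is scored by the PBM enrichment score (E-score), a modified Wilcoxon-Mann-Whitney statistic from -0.5 to +0.5, computed with the Universal PBM Analysis Suite. Scale: above 0.35 generally sequence-specific binding.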
GGTGGCAC was tested, and the “PBM E-score” value was -0.346. ATAAGGAG was tested, and the “PBM E-score” value was -0.0461. CTCCTGTC was tested, and the “PBM E-score” value was -0.0444. For GCCGTTAC, the “PBM E-score” value was -0.0446. TCGCGAGA was tested, and the “PBM E-score” value was -0.185. For AGCTACGG, the “PBM E-score” value was -0.0359. With CCACCCAA the “PBM E-score” value was -0.147. AATAACGG was tested, and the “PBM E-score” value was -0.0296. GACGATGC was tested, and the “PBM E-score” value was -0.0881. For GCAACACC, the “PBM E-score” value was -0.0115. In the case of ACGCGCCA, the “PBM E-score” value is reported as 0.237. In the case of AGTCAAGC, the “PBM E-score” value is reported as -0.258. For CGATGGTA, the “PBM E-score” value was -0.0712. In the case of ATTTTTAA, the “PBM E-score” value is reported as 0.237. In the case of CAAAGGAC, the “PBM E-score” value is reported as -0.159. For CTATACAC, the “PBM E-score” value was 0.213. In the case of AGAGGACG, the “PBM E-score” value is reported as 0.0581. In the case of CTACTTGC, the “PBM E-score” value is reported as 0.0575. For CCTGCCAA, the “PBM E-score” value was -0.0799. In the case of TATCTCCA, the “PBM E-score” value is reported as -0.0977. AGTGCTAG was tested, and the “PBM E-score” value was -0.128. With ACTACCCC the “PBM E-score” value was -0.316. ACGATACA was tested, and the “PBM E-score” value was 0.226. In the case of AATCTGTC, the “PBM E-score” value is reported as -0.0376. In the case of GTGAACAA, the “PBM E-score” value is reported as 0.276. With AAAGACGC the “PBM E-score” value was -0.0524. With ACGCTTGC the “PBM E-score” value was -0.0163. For AAGTCCTA, the “PBM E-score” value was -0.1. ACCCCGAA was tested, and the “PBM E-score” value was -0.00187. In the case of AAACAGGG, the “PBM E-score” value is reported as -0.125. AACTAGCT was tested, and the “PBM E-score” value was 0.0481. ATGCGTTC was tested, and the “PBM E-score” value was 0.122. In the case of ATCGGAGA, the “PBM E-score” value is reported as -0.18. With GAACGGCC the “PBM E-score” value was -0.213. In the case of TGTAAAAA, the “PBM E-score” value is reported as 0.444. With AACGCTGA the “PBM E-score” value was 0.016. With CAGGATGA the “PBM E-score” value was -0.109. In the case of CAGCGGCG, the “PBM E-score” value is reported as 0.0698. With CCTATCAA the “PBM E-score” value was 0.0128. TACTTAAA was tested, and the “PBM E-score” value was -0.0189. CGCAGGAA was tested, and the “PBM E-score” value was -0.153. In the case of CCTAGAAA, the “PBM E-score” value is reported as -0.176. AGCAAAAG was tested, and the “PBM E-score” value was -0.0333. AAGTGTAT was tested, and the “PBM E-score” value was 0.194. For CTCGATAC, the “PBM E-score” value was 0.153. CGCCGCAA was tested, and the “PBM E-score” value was -0.0429. CGATTGCC was tested, and the “PBM E-score” value was -0.164. AGTGCACG was tested, and the “PBM E-score” value was -0.0358. With ATCGCGTC the “PBM E-score” value was 0.216. In the case of CAATATGC, the “PBM E-score” value is reported as 0.0605. With AGGTTTTA the “PBM E-score” value was -0.0178. With CGCTCCTA the “PBM E-score” value was -0.0984. With ACTTGACT the “PBM E-score” value was 0.053. With ACCAGTTG the “PBM E-score” value was -0.0443. With CTAGTCTA the “PBM E-score” value was -0.24. For TCCCTGAA, the “PBM E-score” value was -0.0392. With AACTCTAT the “PBM E-score” value was -0.0589. For AAATTCGT, the “PBM E-score” value was 0.15. For ACTACTAA, the “PBM E-score” value was 0.0347. In the case of CCCGGTAA, the “PBM E-score” value is reported as 0.0478. For AATCTTTA, the “PBM E-score” value was 0.129. In the case of AAAAGCTC, the “PBM E-score” value is reported as -0.151. For CTATAGAG, the “PBM E-score” value was -0.106. With CCTTGGTC the “PBM E-score” value was -0.217. In the case of CGCCACGC, the “PBM E-score” value is reported as -0.179. With AACCAGGA the “PBM E-score” value was 0.0791. CTACCATA was tested, and the “PBM E-score” value was -0.113. For CCTAGACC, the “PBM E-score” value was -0.202. With GTGACCAC the “PBM E-score” value was -0.348. In the case of TAGCAAAA, the “PBM E-score” value is reported as 0.102. With CCCGTGGA the “PBM E-score” value was -0.176. With GAGGAACA the “PBM E-score” value was 0.0703. CCCCCCAA was tested, and the “PBM E-score” value was -0.324. For CCGCCGTA, the “PBM E-score” value was -0.238. GCGCCTAC was tested, and the “PBM E-score” value was 0.0758. For CTGTGACC, the “PBM E-score” value was -0.274. In the case of CACCAAAC, the “PBM E-score” value is reported as 0.115. For ACACGCAT, the “PBM E-score” value was 0.388. ATGCGCTG was tested, and the “PBM E-score” value was 0.0545. In the case of ATTACTTG, the “PBM E-score” value is reported as 0.34. For GATCCTTA, the “PBM E-score” value was 0.0045. In the case of CTGGATCC, the “PBM E-score” value is reported as -0.25. With AGAAGGCG the “PBM E-score” value was -0.279. With GGGTGGGA the “PBM E-score” value was -0.291. For AATACGGT, the “PBM E-score” value was 0.0471. With GAACTCTC the “PBM E-score” value was -0.159. With ACTGGTGG the “PBM E-score” value was -0.29. With GGGTCGGA the “PBM E-score” value was -0.205. For GAACCTCA, the “PBM E-score” value was -0.0734. With CGAGTGTC the “PBM E-score” value was -0.058. GTGGACAA was tested, and the “PBM E-score” value was -0.0203. In the case of CTATTACA, the “PBM E-score” value is reported as 0.442. With AAGGGTCC the “PBM E-score” value was -0.247. In the case of TAAGCCCA, the “PBM E-score” value is reported as -0.0753. In the case of AACGTCCC, the “PBM E-score” value is reported as 0.0108. In the case of CCAGCTAC, the “PBM E-score” value is reported as -0.0218. In the case of CGATCGCC, the “PBM E-score” value is reported as -0.0998. CACGCTAC was tested, and the “PBM E-score” value was 0.148. AAAGGAGC was tested, and the “PBM E-score” value was -0.138. In the case of GAAGTACA, the “PBM E-score” value is reported as 0.272. ACTAGCCA was tested, and the “PBM E-score” value was -0.0414. With AAGACTCC the “PBM E-score” value was -0.354. With CAGCTTTA the “PBM E-score” value was -0.0513. AGCGCCTA was tested, and the “PBM E-score” value was 0.0161. With CGGGTGTC the “PBM E-score” value was -0.0286. For GGGTTTCA, the “PBM E-score” value was 0.0333. GCCGGATA was tested, and the “PBM E-score” value was -0.0927. With CGCGCTAC the “PBM E-score” value was 0.0867. In the case of GGTCCCGA, the “PBM E-score” value is reported as -0.306. With ATAGCCTC the “PBM E-score” value was -0.203. In the case of AAACTTGG, the “PBM E-score” value is reported as -0.155. With TGTCAACA the “PBM E-score” value was 0.331. For ACTCGGTG, the “PBM E-score” value was -0.0952. With ATGTAACC the “PBM E-score” value was 0.304. For CAGACAAC, the “PBM E-score” value was 0.00285. With CTCTTTCC the “PBM E-score” value was -0.399. ACACGGAG was tested, and the “PBM E-score” value was 0.315. In the case of CCTACTGA, the “PBM E-score” value is reported as -0.109. TGAGTCCA was tested, and the “PBM E-score” value was -0.147. With GAAGCCTC the “PBM E-score” value was -0.215. With AATGATGT the “PBM E-score” value was 0.234. In the case of GCCTTACC, the “PBM E-score” value is reported as -0.214. For AACTACAA, the “PBM E-score” value was 0.242. With AGTTCCGG the “PBM E-score” value was -0.191. With GGTGCGGA the “PBM E-score” value was 0.0644. In the case of GCACCGTA, the “PBM E-score” value is reported as -0.146. CGCACAAA was tested, and the “PBM E-score” value was 0.159. In the case of ATTCGGAA, the “PBM E-score” value is reported as 0.0863. For ACGAACCT, the “PBM E-score” value was -0.0493. With CTAGTATA the “PBM E-score” value was 0.0873. With ATCCAGCG the “PBM E-score” value was -0.0893. For AGGGTACT, the “PBM E-score” value was -0.161. ACTCAGAG was tested, and the “PBM E-score” value was -0.0325. For TAGACATA, the “PBM E-score” value was 0.209. In the case of AGACTCAT, the “PBM E-score” value is reported as -0.0539. With ATTCGGGG the “PBM E-score” value was -0.248. In the case of CACCTGAC, the “PBM E-score” value is reported as -0.0593. For ATAAGCTG, the “PBM E-score” value was 0.0283. With CGCGCTTC the “PBM E-score” value was -0.0187. In the case of CGGCTCCC, the “PBM E-score” value is reported as -0.214. With CAAGTGGC the “PBM E-score” value was -0.13. In the case of TCTCAAAA, the “PBM E-score” value is reported as 0.028. GCCAAGAA was tested, and the “PBM E-score” value was 0.00193. With GGTTAGGA the “PBM E-score” value was -0.263. With AACCATAT the “PBM E-score” value was -0.0658. In the case of CGGAGCGA, the “PBM E-score” value is reported as -0.0515. In the case of GGAGTAAA, the “PBM E-score” value is reported as 0.242. With ATCGCGCC the “PBM E-score” value was -0.0319. For AACAGCTT, the “PBM E-score” value was -0.0334. TACCTTGA was tested, and the “PBM E-score” value was 0.0442. AATTATAA was tested, and the “PBM E-score” value was 0.118. With AAAGATGC the “PBM E-score” value was -0.0501. TAAGAAGA was tested, and the “PBM E-score” value was 0.0717. For ATACCGAT, the “PBM E-score” value was -0.139. In the case of ACCATACT, the “PBM E-score” value is reported as 0.129. In the case of CGACTCCC, the “PBM E-score” value is reported as -0.237. With CCACGCAG the “PBM E-score” value was 0.0176. GCGAACCA was tested, and the “PBM E-score” value was -0.0127. ATGAAAGG was tested, and the “PBM E-score” value was -0.051. For GAGGCGCA, the “PBM E-score” value was -0.326. With GTATAAAC the “PBM E-score” value was 0.246. With AAGTGCGC the “PBM E-score” value was -0.239. For GGAGCCTA, the “PBM E-score” value was -0.248. With CATAAGAA the “PBM E-score” value was 0.15. CTAATAGC was tested, and the “PBM E-score” value was -0.0392. With AGTATGGG the “PBM E-score” value was -0.143. For ATGTCAAG, the “PBM E-score” value was 0.305. For AAATAGGC, the “PBM E-score” value was -0.0645. For GAAGACCC, the “PBM E-score” value was -0.382. In the case of TAAATGGA, the “PBM E-score” value is reported as 0.0536. In the case of CCCAAATA, the “PBM E-score” value is reported as -0.089. ACCGTTGC was tested, and the “PBM E-score” value was -0.236.
